Entries after “also recorded” stand apart in the source; their conditions may differ.
Columns and labels:
[1] = target: T1, human S100A9 (Homo sapiens, UniProt P06702); assay: Biacore direct binding of S100 proteins to immobilized anti-S100A9 mAb 43/8
T1 construct: made in house; host or cells: E. coli
T1 sequence (P06702 1-114): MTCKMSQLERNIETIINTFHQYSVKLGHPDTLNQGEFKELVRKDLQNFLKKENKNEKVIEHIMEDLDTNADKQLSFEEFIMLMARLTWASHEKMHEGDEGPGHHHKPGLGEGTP
Description: The S100 proteins were injected at 100 nM concentration (based on the homo- or hetero-dimeric molecular weight) for 3 min at a flow rate of 30 μl/min in sample buffer (HBS-P buffer containing 1 mM Ca^2+ and 20 μM Zn^2+) (1; association phase) followed by injection of running buffer (same as sample buffer) at (2; dissociation phase). […] Sensorgrams from top to bottom represent injection of 400, 200 and 100 nM S100A9 for 2 min at 30 μl/min in the presence or absence of 1 mM Ca^2+ and 20 μM Zn^2+ in HBS-P and after injection of sample buffer without S100A9 (NSB). Responses at late association phase were plotted versus concentration of S100A9. Data was fit to a one-site hyperbola model in GraphPad
Prism yielding a more than 10-fold higher maximum response in the presence of calcium and zinc (4.9 and 0.46×10^3 RU, respectively).
Assays were performed using the anti-S100A9 mAb 43/8 coated on a CM5 chip at high density (3000 RU) using standard amine coupling. The S100A8 and S100A9 proteins were injected at 100 nM concentration (based on the homo- or hetero-dimeric molecular weight) for 3 min at a flow rate of 30 μl/min in sample buffer (HBS-P buffer containing 1 mM Ca^2+and 20 μM Zn^2+) (1; association phase) followed by injection of running buffer (same as sample buffer) at (2; dissociation phase). […] The binding of the S100A8 and S100A9 proteins to the anti-S100A9 mAb 43/8 was dependent on the metal ions Zn^2+ and Ca^2+. Binding was assayed in absence and presence of 1 mM Ca^2+and 20 μM Zn^2+. It was shown that the presence of both these metal ions were required for binding to the anti-S100A9 mAb 43/8. Responses were calculated at late association phase in the absence or presence of 1 mM Ca^2+ and 20 μM Zn^2+in HBS-P. The other conditions were as stated above.
Various S100 proteins were assayed for binding to immobilized anti-S100A9 mAb 43/8 at 100 nM and in the presence of Ca^2+ and Zn^2+ by BIACORE™ direct binding assay. […] The anti-S100A9 antibody show, in addition to reactivity towards the human S100A8/S100A9 complex, human S100A12 and the murine S100A8/S100A9 complex, only weak or no reactivity for the other assayed human and murine S100 proteins.
Samples were injected for 2 min at 30 μl/min over amine coupled anti-S100A9 mAb 43/8 at a density of ˜3,000 RU. Responses at late association phase (t˜175 s) were calculated using the steady-state affinity model in BIAevaluation. S100 proteins to be analyzed were applied on Fast Protein Desalting Columns to obtain a stock solution of 10 μM protein in HBS-P buffer. […]

[2] = target: T1, human S100A9; assay: Epitope competition: S100A9 pre-incubated with antibody, injected over immobilized mAb 43/8; format: binding; settings: 100 nM S100A9, antibody 0-400 nM
Description: The assay was performed by coating human anti-S100A9 mAb 43/8 on a CM5 chip at high density (3000 RU) using standard amine coupling chemistry. Human S100A9 (100 nM) was pre-incubated for at least one hour with the anti-S100A9 mAb 43/8 or 1C10 at concentrations of the antibody ranging from 0 to 400 nM. S100A9, with or without antibody, was injected for 3 min at a flow rate of 30 μl/min in sample buffer (HBS-P buffer containing 1 mM Ca^2+ and 20 μM Zn^2+) (1; association phase) followed by injection of sample buffer (2; dissociation phase).
The anti-S100A9 mAb 43/8 recognizes an epitope different to that of the 1C10 anti-human S100A9 antibody. The blocking of S100A9 binding to immobilized anti-S100A9 antibody in the presence of Ca^2+ and Zn^2+ by the anti-S100A9 antibodies in solution was measured by BIACORE™ direct binding assay. S100A9, pre-incubated either with anti-S100A9 antibody 43/8 or 1C10, was injected over immobilized anti-S100A9 antibody 43/8.
Human S100A9, at a concentration of 100 nM, was pre-incubated for at least one hour with either antibody 43/8 or 1C10 in the concentration range 0-400 nM in sample buffer (HBS-P buffer containing 1 mM Ca^2+ and 20 μM Zn^2+). Incubated samples were then injected for 3 min at a flow rate of 30 μl/min (1; association phase) followed by injection of sample buffer (2; dissociation phase). Responses were calculated at late association phase. […]

[3] = system: human monocytes; assay: FACS staining of human PBMCs; format: cell-based; settings: 30 min at 4° C.
Description: Human Peripheral Blood Mononuclear Cells (PBMCs) were incubated with the anti-S100A9 mAb 43/8 antibody, the anti S100A8/A9 antibody 27E10 or an isotype control antibody for 30 min at 4° C. Cell-associated fluorescence signals were measured by using a FACScan flow cytofluorometer.

[4] = system: monocytes from human peripheral blood; assay: TNFα production in human peripheral blood monocytes; format: cell-based; settings: 10 μg/ml; 24 hours
Description: FIG. 21 show TNFα production in peripheral Blood Mononuclear Cells after stimulation with beads coated with the anti-S100A9 mAb 43/8. Freshly prepared monocytes from human peripheral blood was incubated with 10 μg/m1 anti-S100A9 mAb 43/8 for 24 hours. As a control, cells were incubated with medium alone (negative control), 10 μg/ml of an isotype matched antibody (negative control) or 0.5 μg/ml lipopolysaccharide (LPS) as a positive control.
To test whether the anti-S100A9 mAb 43/8 had functional properties freshly prepared monocytes from human peripheral blood was incubated with 10 μg/m143/8 for 24 hours. As a control, cells were incubated with medium alone (negative control), 10 μg/ml of an isotype matched antibody (negative control) or 0.5 μg/ml lipopolysaccharide (LPS) as a positive control.

[5] = system: LNCaP cells; assay: NFκB reporter gene assay in LNCaP cells; format: cell-based, human; settings: 4 h at 37° C.; 10 μM Zn2+
Description: (§1) FIG. 22 show NFκB reporter gene activity in human prostate cell line LNCaP cells after stimulation with the anti-S100A9 mAb 43/8. The anti-S100A9 mAb 43/8 induced expression of an NFκB reporter gene transfected (pLR446) into the LNCaP cells. Triplicate cell cultures with 10×10^4 cells (96 well plate) were incubated for 4h at 37° C. in 100 μl RPMI culture medium supplemented with 10% FCS and 10 μM Zn^2+, before the luminescence was measured (Steadylite HTS; Perkin Elmer). PMA (1.5 ng/ml) was used as a positive control and as a negative isotype control mouse IgG1 was used.
as §1, with “The” for “FIG. 22 show NFκB reporter gene activity in”, “prostate cancer” for “prostate”, “express RAGE and one of its known protein ligands S100A9.” for “cells after stimulation with the anti-S100A9 mAb 43/8.”, “4 h” for “4h”

B1: anti-S100A9 mAb 43/8: mouse monoclonal anti-S100A9 antibody; variable chains SEQ ID NO 18 and 20; hybridoma ECACC 13021301 (antibody, listed as Mus musculus, V domains shown)
VL: ASLAVSLGQRATISCRASESVDIYGISFMNWFQLKPGQPPKLLIYAASKQGSGVPARFSGSGSGTDFSLNIHSMEEDDTAMYFCQQSKEVPRTFGGGTKLEIKRADAAPT
VH: PELVKSGASVKISCKASGYSFTDYNINWVKQSNGKSLEWIGLINPNYGTTFYNQKFKGKATLTVDQSSSTAYMQLNSLTSEDSAVYYCARETLLLRYFDYWGQGTTLTVSSAKTTPPSVY
notes: mouse monoclonal anti-S100A9 antibody; hybridoma ECACC 13021301
With B1 the “maximum response with calcium and zinc versus without” value [1] was “more than 10 fold”, the “binding and specificity for S100 proteins (in words)” value ([1]; 100 nM S100 proteins, Ca2+ and Zn2+ present) was “Binding was demonstrated for the human and murine proteins, S100A8, S100A9 and the S100A8/S100A9 complex; also recorded: Specificity for human S100A9” and the “maximum response of human S100A9 binding to immobilized mAb 43/8” value ([1]; absence of Ca2+ and Zn2+) was 0.46 ×10^3 RU. The “maximum response of human S100A9 binding to immobilized mAb 43/8” value ([1]; presence of 1 mM Ca2+ and 20 μM Zn2+) was 4.9 ×10^3 RU, the “inhibition of S100A9 binding to immobilized 43/8 compared with antibody 1C10” value [2] was “At least a ten-fold difference in inhibition” and the “inhibition of S100A9 binding to immobilized 43/8 compared with antibody 1C10” value ([2]; listed as antibody 43/8) was “more than ten-fold higher inhibition”. The “interaction with the surface of human monocytes” value [3] was “interact with the surface of human monocytes but with lower efficiency than the 27E10 antibody; also recorded: interact with the surface of human monocytes but with lower efficiency than the 27E10 anti-body”, the TNFα production [4] was “induced a robust TNFα production” and the “NFκB reporter gene activity” value [5] was “induced NFκB reporter gene activity in a dose dependent way”.
